Several values for one entry are separate records, joined by “and”; a condition that tells them apart may be missing. Equal values may be shown once. One block for each compound: values may come before it.
Assays:
R132H IDH1 [1] = biological target: T1, R132H IDH1 (Homo sapiens, UniProt O75874, R132H); test: CPMG-edited 1H NMR ligand binding, R132H IDH1; settings: for binding to R132H IDH1: without metal ions, NMR, non-denaturing MS, DSF; for effect on binding of 2OG/NOG with R132H IDH1: with Mg^2+ or Ca^2+ (10 mM), inhibitor 50 µM
T1 construct: made in house; host or cells: Escherichia coli BL21(DE3) pLyS

R132H IDH1 [2] = biological target: T1, R132H IDH1; test: Non-denaturing protein MS, R132H IDH1; assay type: binding; settings: for molecules observed to bind to the R132H IDH1 dimer / effect of inhibitor addition on 2OG/NOG binding to R132H IDH1: without divalent metal ions; for molecules observed to bind to the R132H IDH1 dimer: tenfold molar excess; for binding stoichiometry: R132H IDH1 dimer with two NADPHs bound
R132H IDH1 [3] = biological target: T1, R132H IDH1; test: Absorbance assay: kinetics of reductive reaction (2OG to 2HG) by R132H IDH1; assay type: biochemical
R132H IDH1 [4] = settings: cited from earlier work; for IC50: read-out: IC50
[5] = test system: LN18 glioblastoma cells stably overexpressing R132H IDH1; test: Intracellular 2HG levels by AEC-MS in inhibitor-treated LN18 cells; settings: AGI-5198 (1 µM) or GSK864 (100 nM), 0.05–10 mM MgSO4, 19 h
R132H IDH1 [6] = biological target: T1, R132H IDH1; test: 1H NMR reaction monitoring, R132H IDH1; assay type: biochemical; settings: R132H IDH1, 10 mM CaCl2, equimolar to Mg2+
R132H IDH1 [7] = biological target: T1, R132H IDH1; test: Absorbance assay: effect of metal ions on catalysis and inhibition of R132H IDH1; assay type: biochemical; settings: R132H IDH1, metal ions 10 mM in the presence of 10 mM Mg^2+
R132H IDH1 [8] = biological target: T1, R132H IDH1; test: Differential scanning fluorimetry (DSF) thermal shift, R132H IDH1; assay type: binding; settings: R132H IDH1, divalent metal ions (5 mM), 50 mM Tris-HCl, pH 7.5
[9] = R132H IDH1, reductive reaction (2OG to 2HG) with Mg^2+ (10 mM MgCl2)
[10] = R132H IDH1, reductive reaction (2OG to 2HG) with Mn^2+ (10 mM MnCl2)

T1 sequence (O75874 2-414 R132H): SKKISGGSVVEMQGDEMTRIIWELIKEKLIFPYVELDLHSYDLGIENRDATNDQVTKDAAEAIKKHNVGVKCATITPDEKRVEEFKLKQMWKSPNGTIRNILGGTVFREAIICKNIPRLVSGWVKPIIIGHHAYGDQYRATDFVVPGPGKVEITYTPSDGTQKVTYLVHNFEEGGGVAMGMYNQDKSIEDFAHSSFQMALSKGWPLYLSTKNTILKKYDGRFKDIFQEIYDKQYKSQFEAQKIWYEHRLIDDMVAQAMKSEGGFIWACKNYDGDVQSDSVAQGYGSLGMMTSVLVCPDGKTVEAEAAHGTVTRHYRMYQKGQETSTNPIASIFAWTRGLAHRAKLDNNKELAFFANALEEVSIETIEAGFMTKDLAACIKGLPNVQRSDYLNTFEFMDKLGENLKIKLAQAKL

binding to R132H IDH1 (R132H IDH1 [1]): not observed to bind
SMILES: O=C(O)CCC(O)C(=O)O (stereo not drawn) [2HG, 2-hydroxyglutarate]

molecules observed to bind to the R132H IDH1 dimer (R132H IDH1 [2]): one | binding to R132H IDH1 (R132H IDH1 [1]): bind weakly | Velocity (R132H IDH1 [3]; Fig. S3g, MnCl2 as metal, [2OG] 46.875 μM): 0.04966 µM/s and 0.05457 µM/s | Velocity (R132H IDH1 [3]; Fig. S3g, MnCl2 as metal, [2OG] 1500 μM): 0.3806 µM/s and 0.3297 µM/s | Km (R132H IDH1 [3]; [9]): 652 ± 116 µM | Vmax (R132H IDH1 [3]; [9]): 236 ± 10 nM/s | Km (R132H IDH1 [3]; [10]): 175 ± 26 µM | Vmax (R132H IDH1 [3]; [10]): 390 ± 16 nM/s
SMILES: O=C(O)CCC(=O)C(=O)O [2OG, 2-oxoglutarate]
Velocity (R132H IDH1 [3]; Fig. S2j, [2OG] 375 μM): 0.09335 µM/s and 0.1062 µM/s and 0.0565 µM/s | Velocity (R132H IDH1 [3]; Fig. S2j, [2OG] 750 μM): 0.1098 µM/s and 0.12 µM/s and 0.1458 µM/s | Velocity (R132H IDH1 [3]; Fig. S2j, [2OG] 1500 μM): 0.1295 µM/s and 0.1974 µM/s and 0.2025 µM/s | Velocity (R132H IDH1 [3]; Fig. S2j, [2OG] 6000 μM): 0.2211 µM/s and 0.2241 µM/s and 0.2171 µM/s | Velocity (R132H IDH1 [3]; Fig. S2j, [2OG] 12000 μM): 0.213 µM/s and 0.2257 µM/s and 0.2451 µM/s | Velocity (R132H IDH1 [3]; Fig. S2j, [2OG] 24000 μM): 0.1965 µM/s and 0.2179 µM/s and 0.2281 µM/s | Velocity (R132H IDH1 [3]; Fig. S3g, MnCl2 as metal, [2OG] 187.5 μM): 0.2372 µM/s and 0.2213 µM/s and 0.2255 µM/s | Velocity (R132H IDH1 [3]; Fig. S3g, MnCl2 as metal, [2OG] 375 μM): 0.2908 µM/s and 0.2809 µM/s and 0.2852 µM/s | Velocity (R132H IDH1 [3]; Fig. S3g, MnCl2 as metal, [2OG] 750 μM): 0.3538 µM/s and 0.3262 µM/s and 0.3736 µM/s | Velocity (R132H IDH1 [3]; Fig. S3g, MnCl2 as metal, [2OG] 3000 μM): 0.3213 µM/s and 0.3264 µM/s and 0.3318 µM/s

binding stoichiometry (R132H IDH1 [2]): one inhibitor per IDH1 dimer | effect of inhibitor addition on 2OG/NOG binding to R132H IDH1 (R132H IDH1 [2]): does not affect | effect on binding of 2OG/NOG with R132H IDH1 (R132H IDH1 [1]): weakens the binding
SMILES: N#Cc1ccnc(N2C(=O)CC[C@H]2C(=O)N(c2cncc(F)c2)[C@H](C(=O)NC2CC(F)(F)C2)c2ccccc2Cl)c1 [AG-120, Ivosidenib]

SMILES: Cc1ccccc1C(C(=O)NC1CCCCC1)N(C(=O)Cn1ccnc1C)c1cccc(F)c1 (stereo not drawn) [AGI-5198]
mode of inhibition (R132H IDH1 [4]): competitive with 2OG | IC50 (R132H IDH1 [4]): 70 nM | 2HG production by R132H IDH1 in cells [5]: substantially suppressed 2HG production

activity/inhibition in conversion of 2OG to 2HG (R132H IDH1 [6]): not catalytically active and inhibits | inhibition by metal ion (R132H IDH1 [7]): inhibiting | thermal shift (shift in Tm) (R132H IDH1 [8]): −1.2 °C
SMILES: [Ca+2].[Cl-].[Cl-] [Ca^2+, CaCl2]

binding stoichiometry (R132H IDH1 [2]): two inhibitors per IDH1 dimer | effect of inhibitor addition on 2OG/NOG binding to R132H IDH1 (R132H IDH1 [2]): does not affect | effect on binding of 2OG/NOG with R132H IDH1 (R132H IDH1 [1]): weakens the binding
SMILES: COc1c(C)cc(NC(=O)c2nn(Cc3ccc(F)cc3)c3c2CN(C(=O)c2ccc[nH]2)C[C@]3(C)C(N)=O)cc1C [GSK864]
IC50 (R132H IDH1 [4]): 4.6 nM | 2HG production by R132H IDH1 in cells [5]: substantially suppressed 2HG production

molecules observed to bind to each R132H IDH1 dimer (R132H IDH1 [2]; in the presence of MgCl2): two | molecules observed to bind to the R132H IDH1 dimer (R132H IDH1 [2]): one | binding to R132H IDH1 (R132H IDH1 [1]): bind weakly
SMILES: O=C(O)CNC(=O)C(=O)O [NOG, N-oxalylglycine]

Reference: article PMC8560763, “Roles of metal ions in the selective inhibition of oncogenic variants of isocitrate dehydrogenase 1” (Communications Biology, 2021)
